Data taken from patent US10364280B2, “Polypeptide” (AFFIBODY AB, priority 2015, dated 2019).

What was measured:
hPD-L1 = target: T1, hPD-L1 (Homo sapiens, UniProt Q9NZQ7); assay: Biacore kinetic analysis on immobilized hPD-L1; assay type: binding; conditions: His6-tagged Z variants; approximate, based on 5 and 50 nM injected; 1:1 interaction model
T1 construct: purchased R&D Systems 156-B7-100
Method: (§1) Kinetic constants (ka and kd) and affinities (KD) for hPD-L1 were determined for the His6-tagged Z variants Z13166 (SEQ ID NO:1), Z13178 (SEQ ID NO:2), Z13359 (SEQ ID NO:3) and Z13398 (SEQ ID NO:4) using a Biacore 2000 instrument (GE Healthcare). All four Z variants were also tested for binding against the sequence-related proteins hPD-L2, hB7-H3, hB7-H4. Z13166 and Z13398 were further analyzed against mPD-L1 (mouse PD-L1 Fc Chimera, R&D Systems, cat. no. 1019-B7) and Z13178 and Z13359 were analyzed against rhesus monkey PD-L1 (RhPD-L1; rhesus PD-L1/Fc Chimera, Sino Biological Inc., cat. no. 90251-C02H)
(§2) hPD-L1, hPD-L2, hB7-H3, hB7-H4, mPD-L1 and RhPD-L1 were immobilized in separate flow cells on the carboxylated dextran layer of different CM5 chip surfaces (GE Healthcare, cat. no. BR100012). The immobilization was performed using amine coupling chemistry according to the manufacturers protocol and using HBS-EP (0.01 M HEPES pH 7.4, 0.15 M NaCl, 3 mM EDTA, 0.005% v/v Surfactant P20, GE Healthcare, cat. no. BR100188) as running buffer. In a first set of experiments, in which Z13166 and Z13398 were analyzed, the ligand immobilization levels on the surfaces were 468-894 RU for hPD-L1, 482 RU for mPD-L1, 537-742 RU for hPD-L2, 383 RU for hB7-H3, and 538-659 RU for hB7-H4. One flow cell surface on each chip was activated and deactivated for use as blank during analyte injections. In the kinetic experiment, HBS-EP was used as running buffer and the flow rate was 50 μl/min. The analytes, i.e. the Z variants, were each diluted in HBS-EP buffer within a concentration range of 1000 to 0.01 nM and injected for 5 min, followed by dissociation in running buffer for 15-25 min. After dissociation, the surfaces were regenerated with one or two injections of 0.1% SDS. Kinetic constants were calculated from the sensorgrams using the Langmuir 1:1 model of BiaEvaluation software 4.1 (GE Healthcare). In a second set of experiments, in which Z13178 and Z13359 were analyzed, the ligand immobilization levels on the surfaces were 1030 RU for hPD-L1, 1060 RU for RhPD-L1, 1070 RU for hPD-L2, 1090 RU for hB7-H3, and 770 RU for hB7-H4. Analyses were performed essentially as described above for the first set of experiments, but using a flow rate of 30 μl/min and the Z variants were injected at concentrations of 5 and 50 nM over chips immobilized with hPD-L1 and RhPD-L1, and at a concentration of 500 nM over immobilized hPD-L2, hB7-H3 and hB7-H4,

RhPD-L1 = target: T2, RhPD-L1 (Macaca mulatta, UniProt H9Z833); assay: Biacore kinetic analysis on immobilized RhPD-L1; assay type: binding, rhesus monkey; conditions: His6-tagged Z variants
T2 construct: purchased Sino Biological Inc. 90251-C02H
Method: as §1, §2

hPD-L1 binding to hPD-1 = target: T3, hPD-L1 binding to hPD-1 (Homo sapiens, UniProt Q9NZQ7); assay: AlphaLISA blocking assay; conditions: His6-tagged Z variants; 10 nM (Z13166, Z13398) or 8 nM (Z13178, Z13359) biotinylated hPD-L1; hPD-1 coated Acceptor beads; read-out: IC50 (M) inhibiting binding of PD-L1 to PD-1
T3 construct: purchased R&D Systems 156-B7-100 (hPD-L1); 1086-PD-050 (hPD-1)
Method: The potential of Z variants to inhibit binding of PD-L1 to PD-1 was analyzed by AlphaLISA and recordings in an EnSpire multiplate reader 2300 (Perkin Elmer). hPD-1 (human PD-1 Fc-chimera; R&D Systems, cat. no. 1086-PD-050) was immobilized on AlphaLISA Acceptor beads (Perkin Elmer, cat. no. 6772002) according to the manufacturers recommendations. Stepwise serial dilutions 1:3 of the His-tagged Z variants Z13166 (SEQ ID NO:1) and Z13398 (SEQ ID NO:4) to final concentrations of 250 nM to 12 μM were made in a 384 plate (Perkin Elmer, cat. no. G6005350) and incubated for 1 h with 10 nM biotinylated hPD-L1 in AlphaLISA buffer (Perkin Elmer, cat. no. AL000F). hPD-1-coated Acceptor beads were added to a final concentration of 10 μg/ml and incubated for 1 h. Finally, streptavidin coated Donor beads (Perkin Elmer, cat. no. 6772002) were added to a final concentration of 40 μg/ml and incubated for 30 min. All incubations were performed at RT in the dark. The plate was analyzed in the EnSpire instrument and the IC50 values were calculated using GraphPad Prism 5. AlphaLISA analysis of the Z variants Z13178 (SEQ ID NO:2) and Z13359 (SEQ ID NO:3) was performed essentially as described above but with the following exceptions: Exception 1: stepwise serial dilutions 1:3 of Z variants to final concentrations of 250 nM to 4 μM were made in a 384SW plate (Perkin Elmer, cat. no. 6008350) and incubated for 45 min with 8 nM biotinylated hPD-L1 (R&D Systems) in AlphaLISA buffer (Perkin Elmer, cat. no. AL000F); and Exception 2: hPD-1-coated Acceptor beads were added to a final concentration of 10 μg/ml and incubated for 50 min.

[1] = Circular dichroism (CD) spectroscopy with variable temperature measurement; assay type: physicochemical; conditions: CD at 221 nm, VTM; Z15171-Cys in HEPES/EDTA pH 7.2, 20 to 90° C.; His-tagged Z13178, Z13398 in PBS, to 80° C.
Method: The Z variant Z15171-Cys (SEQ ID NO:5), was diluted to 0.5 mg/ml in 20 mM HEPES, 1 mM EDTA, pH 7.2. A CD spectrum at 250-195 nm was obtained at 20° C. In addition, a variable temperature measurement (VTM) was performed to determine the melting temperature (Tm). In the VTM, the absorbance was measured at 221 nm while the temperature was raised from 20 to 90° C., with a temperature slope of 5° C./min. A new CD spectrum was obtained at 20° C. after the heating procedure in order to study the refolding ability of the Z variants. The CD measurements were performed on a Jasco J-810 spectropolarimeter (Jasco Scandinavia AB) using a cell with an optical path length of 1 mm. The His-tagged Z variants Z13178 (SEQ ID NO:2) and Z13398 (SEQ ID NO:4) were analyzed by CD spectroscopy as described above, but with the exceptions that PBS was used as analysis buffer and the temperature was raised to 80° C. in the VTM.

[2] = approximate, based on one concentration, 5 nM

T1 sequence (Q9NZQ7 19-239 limits assumed): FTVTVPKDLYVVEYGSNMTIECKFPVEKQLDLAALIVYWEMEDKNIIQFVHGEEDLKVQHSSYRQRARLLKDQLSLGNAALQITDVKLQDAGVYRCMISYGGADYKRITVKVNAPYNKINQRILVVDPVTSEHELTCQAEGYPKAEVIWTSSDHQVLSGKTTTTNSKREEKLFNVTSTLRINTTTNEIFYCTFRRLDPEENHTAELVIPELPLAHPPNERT
T2 sequence (H9Z833 19-239 limits assumed): as the sequence (Q9NZQ7 19-239 limits assumed) above, with A33T, A34S, S62N, R68Q, Q82R, F173L, T185A, T192I, H215L counted along it
T3 sequence (Q9NZQ7 19-239 limits assumed): as the sequence (Q9NZQ7 19-239 limits assumed) above

Z13178: PD-L1 binding Z variant, 58 amino acid residues, SEQ ID NO:2; tested as ABD fusion or His6-tagged (VDAKYAKERTWAVWEIMDLPNLTAGQRGAFINKLHDDPSQSSELLSEAKKLNDSQAPK; Engineered PD-L1 binding polypeptide)
Kd (hPD-L1): 540 nM
ka (1/Ms) hPD-L1 (hPD-L1): 19 M⁻¹ s⁻¹
kd (1/s) hPD-L1 (hPD-L1): 1e-05 s⁻¹
binding to RhPD-L1 in Biacore (RhPD-L1): showed binding
Kd (RhPD-L1; [2]): 22 nM
ka (1/Ms) RhPD-L1 (RhPD-L1; [2]): 110000 M⁻¹ s⁻¹
kd (1/s) RhPD-L1 (RhPD-L1; [2]): 0.0025 s⁻¹
IC50 (hPD-L1 binding to hPD-1): ~1e-08 M
Tm (° C.) [1]: 52 °C
